# Assay results: the supplement of paper PMC12645437, “Orthogonal IMiD-Degron Pairs Induce Selective Protein Degradation in Cells” (ACS Chemical Biology, 2025)
# Some of the results follow.
# B1: Q9UKT9 (peptide)
# chain: FQCEICGRLFTQKGNLLRHIKL
# B2: Q9UKT9 (peptide)
# chain: FACEICGHQFTQKGNLLRHIKL
# B3: Q9UKT9 (peptide)
# chain: FYCPVCGARFTQKGNLLRHIKL
# B4: Q9UKT9 (peptide)
# chain: FSCPQCGAEFTQKGNLLRHIKL
# B5: Q9UKT9 (peptide)
# chain: LYCEICGFPCTQKGNLLRHIKL
# B6: Q9UKT9 (peptide)
# chain: FACDVCGAIFTQKGNLLRHIKL
# B7: Q9UKT9 (peptide)
# chain: FKCDQCGAEFTQKGNLLRHIKL
# B8: Q9UKT9 (peptide)
# chain: FDCNQCGAGFTQKGNLLRHIKL
# B9: Q9UKT9 (peptide)
# chain: FVCEICGAVFTQKGNLLRHIKL
# B10: Q9UKT9 (peptide)
# chain: FYCPICGAMFTQKGNLLRHIKL
# B11: Q9UKT9 (peptide)
# chain: FHCPQCGAMFTQKGNLLRHIKL
# B12: Q9UKT9 (peptide)
# chain: FNCPICGHGFTQKGNLLRHIKL
# B13: Q9UKT9 (peptide)
# chain: FHCNICGAIFTQKGNLLRHIKL
# B14: Q9UKT9 (peptide)
# chain: FMCPQCGAWFTQKGNLLRHIKL
# B15: Q9UKT9 (peptide)
# chain: FFCEQCGACFTQKGNLLRHIKL
# B16: Q9UKT9 (peptide)
# chain: FVCEQCGAEFTQKGNLLRHIKL
# B17: Q9UKT9 (peptide)
# chain: FKCDICGAQFTQKGNLLRHIKL
# B18: Q9UKT9 (peptide)
# chain: FMCNQCGAVFTQKGNLLRHIKL
# B19: Q9UKT9 (peptide)
# chain: FLCNICGAYFTQKGNLLRHIKL
# B20: Q9UKT9 (peptide)
# chain: FRCPICGRQFTQKGNLLRHIKL
# B21: Q9UKT9 (peptide)
# chain: FHCEQCGAAFTQKGNLLRHIKL
# B22: Q9UKT9 (peptide)
# chain: FICNICGAPFTQKGNLLRHIKL
# B23: Q9UKT9 (peptide)
# chain: FNCNICGARFTQKGNLLRHIKL
# B24: Q9UKT9 (peptide)
# chain: FHCDQCGAIFTQKGNLLRHIKL
# B25: Q9UKT9 (peptide)
# chain: FWCEVCGAYFTQKGNLLRHIKL
# B26: Q9UKT9 (peptide)
# chain: FDCNQCGHFFTQKGNLLRHIKL
# B27: Q9UKT9 (peptide)
# chain: FNCDICGAGFTQKGNLLRHIKL
# B28: Q9UKT9 (peptide)
# chain: FCCEICGRVFTQKGNLLRHIKL
# B29: Q9UKT9 (peptide)
# chain: FLCEVCGATFTQKGNLLRHIKL
# B30: Q9UKT9 (peptide)
# chain: FRCEVCGAEFTQKGNLLRHIKL
# B31: Q9UKT9 (peptide)
# chain: FFCNICGAKFTQKGNLLRHIKL
# B32: Q9UKT9 (peptide)
# chain: FQCEICGHFFTQKGNLLRHIKL
# Biological target: no compound (DMSO)
# Experiment: log2 fold change of degron read counts, EGFP-low vs EGFP+ sorted cells; higher = lower degron-EGFP level without compound (poor expression or instability)
# Details: compound: DMSO control; 18 h
# 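Further: jurkat cells carrying a lentiviral library of mutant zinc finger degrons fused to EGFP plus mCherry, mCherry+ cells FACS sorted, degron abundance counted by next-generation sequencing.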
row,Sequence,log2 fold change of degron read counts
1,B1,-1.6
2,B2,-1.76
3,B3,-1.02
4,B4,-2.83
5,B5,0.859
6,B6,-0.0726
7,B7,-2.36
8,B8,0.46
9,B9,-1.03
10,B10,0.186
11,B11,-0.336
12,B12,-0.492
13,B13,0.128
14,B14,0.43
15,B15,-1.28
16,B16,-3.82

row,Sequence,log2 fold change of degron read counts
1,B17,-1.35
2,B18,0.203
3,B19,0.924
4,B20,-0.0206
5,B21,-1.31
6,B22,-0.638
7,B23,-0.392
8,B24,-0.861
9,B25,0.255
10,B26,1.37
11,B27,-1.19
12,B28,-0.744
13,B29,-2.29
14,B30,-2.23
15,B31,-0.668
16,B32,-0.576
